In the supplement of paper PMC12217912:
The other results are listed elsewhere or left out. Sequences were assembled here from the parent chain. Inactive controls read about 0.05.

B1: TEV protease; numbered along this chain (parent)
chain: MGESLFKGPRDYNPISSSICHLTNESDGHTTSLYGIGFGPFIITNKHLFRRNNGTLVVQSLHGVFKVKDTTTLQQHLVDGRDMIIIRMPKDFPPFPQKLKFREPQREERICLVTTNFQTKSMSSMVSDTSCTFPSGDGIFWKHWIQTKDGQCGSPLVSTRDGFIVGIHSASNFTNTNNYFTSVPKNFMELLTNQEAQQWVSGWRLNADSVLWGGHKVFMVKPEEPFQPVKEATQL

Variants of: B1
Experiment: raw area under fraction-flipped curve 0-4 h after induction (AUC4h, not background-subtracted), DNA-recorder readout of cleavage of the substrate (dimensionless); higher = more cleavage of the substrate by the protease variant
Details: temperature: 34 °C; time window: 0-4 h after rhamnose induction
Procedure: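 In vivo DNA recorder in E. coli TOP10(DE3) ΔrhaA at 34 °C. Each TEVp single-site mutant (parent TEVp 0) is paired with a single-site variant of the 7-mer TEVs (canonical ENLYFQ|S). The substrate sits between flexible linkers in a Bxb1-sfGFP-TEVs-SsrA fusion, so cleavage stabilises Bxb1 and speeds flipping of a recombination array, read by NGS. The value is the raw area under the fraction-flipped curve over 0-4 h after rhamnose induction (AUC4h), with ≥20 reads per time point. It is not background-subtracted; inactive controls average about 0.047.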
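Further: Bxb1 expression induced with 0.2% (w/v) L-rhamnose at OD600 near 0.5, cultures sampled hourly, flipped fraction per protease–substrate barcode pair counted by paired-end Illumina sequencing.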

S123C
area with substrate ENAYFQS: 0.056
area with substrate ENCYFQS: 0.0578
area with substrate ENDYFQS: 0.0655
area with substrate ENEYFQS: 0.0418
area with substrate ENGYFQS: 0.0622
area with substrate ENHYFQS: 0.0592
area with substrate ENIYFQS: 0.115
area with substrate ENKYFQS: 0.0619
area with substrate ENMYFQS: 0.0846
area with substrate ENNYFQS: 0.0611
area with substrate ENRYFQS: 0.0657
area with substrate ENSYFQS: 0.0991
area with substrate ENWYFQS: 0.0106

S123R
area with substrate ENAYFQS: 0.058
area with substrate ENCYFQS: 0.086
area with substrate ENDYFQS: 0.0546
area with substrate ENEYFQS: 0.0511
area with substrate ENGYFQS: 0.0576
area with substrate ENHYFQS: 0.0675
area with substrate ENIYFQS: 0.12
area with substrate ENKYFQS: 0.0536
area with substrate ENMYFQS: 0.0782
area with substrate ENNYFQS: 0.0632
area with substrate ENPYFQS: 0.0329
area with substrate ENQYFQS: 0.0499
area with substrate ENRYFQS: 0.0751
area with substrate ENYYFQS: 0.0752

S123Y
area with substrate ENAYFQS: 0.0624
area with substrate ENDYFQS: 0.054
area with substrate ENEYFQS: 0.0594
area with substrate ENKYFQS: 0.0676
area with substrate ENNYFQS: 0.0663
area with substrate ENQYFQS: 0.0608
area with substrate ENTYFQS: 0.0459
area with substrate ENVYFQS: 0.0718
area with substrate ENWYFQS: 0.0534
area with substrate ENYYFQS: 0.0663

S124H
area with substrate ENAYFQS: 0.0475
area with substrate ENCYFQS: 0.067
area with substrate ENEYFQS: 0.0526
area with substrate ENFYFQS: 0.0646
area with substrate ENGYFQS: 0.0426
area with substrate ENIYFQS: 0.129
area with substrate ENNYFQS: 0.0574
area with substrate ENPYFQS: 0.0653
area with substrate ENRYFQS: 0.0821
area with substrate ENTYFQS: 0.0778
area with substrate ENVYFQS: 0.0812
area with substrate ENWYFQS: 0
area with substrate ENYYFQS: 0.0437

S124N
area with substrate ENAYFQS: 0.068
area with substrate ENEYFQS: 0.0614
area with substrate ENMYFQS: 0.0614
area with substrate ENPYFQS: 0.0586
area with substrate ENWYFQS: 0.0334

M125A
area with substrate ENAYFQS: 0.0529
area with substrate ENCYFQS: 0.0865
area with substrate ENDYFQS: 0.0677
area with substrate ENEYFQS: 0.0541
area with substrate ENFYFQS: 0.0424
area with substrate ENIYFQS: 0.125
area with substrate ENNYFQS: 0.064
area with substrate ENQYFQS: 0.0574
area with substrate ENSYFQS: 0.0698
area with substrate ENVYFQS: 0.0676
area with substrate ENYYFQS: 0.0531

M125C
area with substrate ENAYFQS: 0.057
area with substrate ENDYFQS: 0.0653
area with substrate ENEYFQS: 0.059
area with substrate ENFYFQS: 0.0697
area with substrate ENHYFQS: 0.0652
area with substrate ENMYFQS: 0.0482
area with substrate ENNYFQS: 0.0686
area with substrate ENPYFQS: 0.0615
area with substrate ENQYFQS: 0.0521
area with substrate ENRYFQS: 0.0578
area with substrate ENSYFQS: 0.0446
area with substrate ENTYFQS: 0.0502
area with substrate ENVYFQS: 0.0689
area with substrate ENYYFQS: 0.0553

M125G
area with substrate ENAYFQS: 0.0745
area with substrate ENDYFQS: 0.0579
area with substrate ENEYFQS: 0.063
area with substrate ENFYFQS: 0.0734
area with substrate ENGYFQS: 0.0713
area with substrate ENMYFQS: 0.103
area with substrate ENNYFQS: 0.0476
area with substrate ENQYFQS: 0.0522
area with substrate ENRYFQS: 0.0518
area with substrate ENSYFQS: 0.0476
area with substrate ENWYFQS: 0.0164
area with substrate ENYYFQS: 0.0616

M125P
area with substrate ENAYFQS: 0.0389
area with substrate ENCYFQS: 0.082
area with substrate ENDYFQS: 0.0534
area with substrate ENEYFQS: 0.065
area with substrate ENGYFQS: 0.0688
area with substrate ENMYFQS: 0.0763
area with substrate ENNYFQS: 0.0657
area with substrate ENPYFQS: 0.0497
area with substrate ENQYFQS: 0.0441
area with substrate ENSYFQS: 0.0526
area with substrate ENVYFQS: 0.0801

M125Q
area with substrate ENAYFQS: 0.0566
area with substrate ENCYFQS: 0.0741
area with substrate ENEYFQS: 0.0628
area with substrate ENFYFQS: 0.0606
area with substrate ENGYFQS: 0.0405
area with substrate ENKYFQS: 0.0656
area with substrate ENMYFQS: 0.0943
area with substrate ENNYFQS: 0.0532
area with substrate ENPYFQS: 0.0612
area with substrate ENQYFQS: 0.063
area with substrate ENRYFQS: 0.0479
area with substrate ENSYFQS: 0.0754
area with substrate ENTYFQS: 0.0696
area with substrate ENVYFQS: 0.101
area with substrate ENWYFQS: 0.004
area with substrate ENYYFQS: 0.0668

S127C
area with substrate ENAYFQS: 0.0628
area with substrate ENCYFQS: 0.0648
area with substrate ENDYFQS: 0.0589
area with substrate ENEYFQS: 0.0626
area with substrate ENFYFQS: 0.0669
area with substrate ENGYFQS: 0.0564
area with substrate ENKYFQS: 0.0642
area with substrate ENNYFQS: 0.0691
area with substrate ENPYFQS: 0.0566
area with substrate ENQYFQS: 0.0609
area with substrate ENRYFQS: 0.0573
area with substrate ENSYFQS: 0.0654
area with substrate ENTYFQS: 0.0627
area with substrate ENVYFQS: 0.0849
area with substrate ENWYFQS: 0.0043
area with substrate ENYYFQS: 0.057

S127Q
area with substrate ENAYFQS: 0.0544
area with substrate ENCYFQS: 0.0654
area with substrate ENDYFQS: 0.0627
area with substrate ENEYFQS: 0.05
area with substrate ENIYFQS: 0.0664
area with substrate ENNYFQS: 0.0676
area with substrate ENPYFQS: 0.0574
area with substrate ENQYFQS: 0.0638
area with substrate ENSYFQS: 0.056
area with substrate ENTYFQS: 0.0621
area with substrate ENVYFQS: 0.0689
area with substrate ENWYFQS: 0.0475
area with substrate ENYYFQS: 0.0621

S127W
area with substrate ENAYFQS: 0.0568
area with substrate ENCYFQS: 0.0707
area with substrate ENDYFQS: 0.0637
area with substrate ENGYFQS: 0.0435
area with substrate ENNYFQS: 0.0785
area with substrate ENQYFQS: 0.0582
area with substrate ENRYFQS: 0.0657
area with substrate ENSYFQS: 0.0555
area with substrate ENVYFQS: 0.053
area with substrate ENWYFQS: 0.0304

T129G
area with substrate ENAYFQS: 0.0677
area with substrate ENEYFQS: 0.0593
area with substrate ENGYFQS: 0.0633
area with substrate ENPYFQS: 0.0533
area with substrate ENQYFQS: 0.0631
area with substrate ENTYFQS: 0.0616
